Results reported in PubChem BioAssay (NCI).
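Values below derive from 48-hour exposures of cells grown in 96-well plates, with endpoints linearly interpolated between the two concentrations bracketing the appropriate inhibition level. At the GI50, growth is halved. TGI denotes the concentration required for complete inhibition of growth.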

test system: NCI-H322M lung; assay: NCI anticancer screen, dose series, 48 h

SMILES | GI50 [µM] | TGI [µM]
CC(=O)Nc1cccc(Nc2nccc(N[C@@H](C)c3ccccc3)n2)c1 | 0.552 | > 10
O=C1NC(=NC23CC4CC(CC(C4)C2)C3)N/C1=C\c1ccc2ncccc2n1 | 0.266 | 2.8
N#Cc1c(NC(=O)c2ccc(C(F)(F)F)cc2C(F)(F)F)sc2c1CCC(=O)C2 | 3.25 | 14.8
C[C@@H](Nc1c(C#N)cnc2ccc(-c3cnc4[nH]ncc4c3)cc12)c1ccccc1 | 1.55 | 6.25
Cc1ccc(-c2cc(-c3cc4ccccc4nc3Cl)[nH]c(=O)n2)cc1 | 14.3 | 28.4
